The antibiotic and cytotoxicity screens of Wong et al. (2023)
Some of the results follow.

How the values were obtained:
HSkMC = human skeletal muscle cells; assay: cytotoxicity call (relative viability < 0.9); conditions: 10 µM
HepG2 = assay: cytotoxicity call (relative viability < 0.9); conditions: 10 µM
S. aureus RN4220 = assay: growth inhibition call (relative growth <= 0.2); conditions: 50 µM

| SMILES | cytotoxicity call (HSkMC) | cytotoxicity call (HepG2) | growth inhibition call (S. aureus RN4220) |
| --- | --- | --- | --- |
| COC(=O)[C@@]12CC[C@@H](C)[C@@H](C)[C@@H]1C1=CC[C@H]3[C@@]4(C)CC[C@@H](OC(C)=O)C(C)(C)[C@@H]4CC[C@@]3(C)[C@@]1(C)CC2 | inactive | inactive | inactive |
| C[C@@H]1CN([C@H](C)CO)C(=O)Cc2cc(NC(=O)CCCN(C)C)ccc2O[C@H]1CN(C)S(=O)(=O)c1ccc(F)cc1 | inactive | inactive | inactive |
| COc1ccc(S(=O)(=O)N(C)C[C@@H]2OCCCC[C@H](C)Oc3ccc(NC(=O)Nc4ccc(F)cc4)cc3C(=O)N([C@@H](C)CO)C[C@H]2C)cc1 | inactive | inactive | inactive |
| O=C(C[C@H]1CC[C@H](NS(=O)(=O)c2ccccc2F)[C@H](CO)O1)NCCCN1CCOCC1 | inactive | inactive | inactive |
| C=CCOC(=O)[C@H]1[C@@H]2C(=O)O[C@@H](c3ccccc3)[C@@H](c3ccccc3)N2[C@@H](c2ccc(OCCOC(=O)[C@H]3C[C@H]4C(=O)N[C@@H](CC(C)C)C(=O)N4[C@H]3c3ccc(O)cc3)cc2)[C@]12C(=O)Nc1ccc(I)cc12 | inactive | inactive | inactive |
| CN(C)C(=O)c1ccc(-c2ccc3n(c2=O)C[C@@H]2[C@@H](CO)[C@H](C(=O)NCCc4ccccc4)N[C@H]32)cc1 | inactive | inactive | inactive |
| CNC1C(O)C(NC)C2OC3(O)C(=O)CC(C)OC3OC2C1O.Cl.Cl (stereo not given) | inactive | inactive | inactive |
| CNC(=O)Cc1cnc(N)s1 | inactive | inactive | inactive |
| CC1CCC2(OC1)OC1CC3C4CC=C5CC(O)CCC5(C)C4CCC3(C)C1C2C (stereo not given) | inactive | inactive | inactive |
| CN(C)C(=O)C[C@@H]1CC[C@H](NC(=O)C2CC2)[C@@H](CO)O1 | inactive | inactive | inactive |
| Cc1noc(C)c1NC(=O)N(C)C[C@@H]1Oc2ccc(NS(=O)(=O)c3cccs3)cc2CC(=O)N([C@H](C)CO)C[C@@H]1C | inactive | inactive | inactive |
| C=CC1=C(C(=O)O)N2C(=O)C(NC(=O)C(=NOCC(=O)O)c3csc(N)n3)C2SC1 (stereo not given) | inactive | active | inactive |
| Cc1noc(C)c1NC(=O)Nc1ccc2c(c1)C(=O)N([C@H](C)CO)C[C@H](C)[C@@H](CN(C)Cc1ccc(C(F)(F)F)cc1)OCCCC[C@H](C)O2 | inactive | inactive | inactive |
| Cc1ccc(S(=O)(=O)N(C)C[C@H]2OCCCC[C@H](C)Oc3ccc(NC(=O)Nc4c(C)noc4C)cc3C(=O)N([C@@H](C)CO)C[C@H]2C)cc1 | inactive | inactive | inactive |
| C[C@H](CO)N1C[C@H](C)[C@H](CN(C)Cc2ccc(C(=O)O)cc2)Oc2ncc(C#CCN(C)C)cc2C1=O | inactive | inactive | inactive |
| COCCOC(=O)N1C(=O)[C@@]2(c3cc(C#CCNC(N)=O)ccc31)[C@H](c1ccccc1OCCO)N1[C@H](c3ccccc3)[C@H](c3ccccc3)OC(=O)[C@H]1[C@@H]2C(N)=O | inactive | inactive | inactive |
| C[C@H]1CN([C@@H](C)CO)C(=O)c2cccc(NC(=O)Nc3cccc4ccccc34)c2O[C@H]1CN(C)CC1CC1 | inactive | inactive | inactive |
| NCc1nc(CCc2ccccc2)cs1 | inactive | inactive | inactive |
| CO[C@@H]1CN(C)C(=O)c2ccc(NC(=O)Nc3cccc(F)c3)cc2OC[C@H](C)N(C(=O)Nc2c(C)noc2C)C[C@H]1C | inactive | inactive | inactive |
| CCC1(O)CC2CN(CCc3c([nH]c4ccccc34)C(C(=O)OC)(c3cc4c(cc3OC)N(C)C3C(O)(C(=O)OC)C(OC(C)=O)C5(CC)C=CCN6CCC43C65)C2)C1.O=S(=O)(O)O (stereo not given) | inactive | active | inactive |
| COC(=O)c1c2oc(c1C(=O)OC)C(=O)N(C)Cc1cn(nn1)C[C@@H](Cc1ccccc1)NC(=O)N[C@H](CO)CC2 | inactive | inactive | inactive |
| Cc1cnc(C(=O)N2C[C@@H]3COC[C@@]3(CNS(C)(=O)=O)C2)cn1 | inactive | inactive | inactive |
| O=C(O)c1cccc(O)c1O | inactive | inactive | inactive |
| C[C@@H]1CN([C@@H](C)CO)C(=O)c2cc(NC(=O)C3CC3)ccc2O[C@@H]1CN(C)S(=O)(=O)c1ccc(F)cc1 | inactive | inactive | inactive |
| Cc1ccc(S(=O)(=O)Nc2ccc3c(c2)CC(=O)N([C@H](C)CO)C[C@@H](C)[C@@H](CN(C)S(C)(=O)=O)O3)cc1 | inactive | inactive | inactive |
